Results as given in the supplement of paper PMC11348887.
Structures can show the parent of a compound that is named as a salt. The list shows a part of the results. No stated cut-off is given here; in the data, active = -2 or less and inactive = the rest. Single values are uncertain, as repeats are few or missing.

test system: hPSC-derived cortical neurons (WA09); experiment: nuclei number (viability) z-score; higher = more surviving cells; settings: 5 µM; treatment: days 7-14 after plating, readout day 21
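Further: nuclei counted from DAPI counterstain by automated high-content image analysis, four fields per well at ×20 in 384-well plates, with sequential b-score then z-score normalization.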

Row | SMILES | nuclei number (z-score)
1 | [O-][n+]1ccccc1[S-].[O-][n+]1ccccc1[S-].[Zn+2] [Zinc Pyrithione] | active: -2.4
2 | N[C@@H]1C[C@H]1c1ccccc1 [Tranylcypromine (2-PCPA) HCl] | inactive: 0.128
3 | CN1[C@@H]2C[C@@H](OC(=O)[C@H](CO)c3ccccc3)C[C@H]1[C@@H]1O[C@@H]12 [Scopolamine HBr] | inactive: -0.996
4 | CN(C)CCc1ccc(O)cc1 [Hordenine] | inactive: -1.29
5 | C/C(=C\c1csc(C)n1)[C@@H]1C[C@@H]2O[C@@H]2CCC[C@H](C)[C@H](O)[C@@H](C)C(=O)C(C)(C)[C@@H](O)CC(=O)O1 [Epothilone A] | inactive: -0.886
6 | COC1=C[C@@H]2[C@@H]3Cc4ccc(OC)c(O)c4[C@]2(CCN3C)CC1=O [Sinomenine] | inactive: -0.0393
7 | COc1ccc(N(C(=O)Oc2c(C)cccc2C)c2ccnc(Nc3ccc(N4CCN(C)CC4)cc3)n2)c(OC)c1 | inactive: 0.671
8 | O=[N+]([O-])C(Br)(CO)CO [Bronopol] | inactive: 0.243
9 | CN(C)C(=O)Oc1ccc[n+](C)c1 [Pyridostigmine Bromide] | inactive: 0.205
10 | CN1CCN(c2nc3ccccc3nc2Cl)CC1 | inactive: -0.198
11 | CCN1CC2(OC(=O)c3ccccc3NC(C)=O)CCC(OC)C34C1C(CC23)C1(O)CC(OC)C2CC4C1(O)C2OC (centres undefined) [Lappaconite HBr] | inactive: -0.217
12 | C[C@@H]1[C@H](O)[C@@H](C)/C=C/C=C/CC/C=C/C=C/C=C/C=C/[C@H](O[C@H]2O[C@@H](C)[C@H](O)[C@@H](N)[C@H]2O)C[C@@H]2O[C@](O)(C[C@@H](O)[C@H](O)CC[C@@H](O)C[C@@H](O)C[C@@H](O)CC(=O)O[C@H]1C)C[C@H](O)[C@H]2C(=O)O [Nystatin (Fungicidin)] | inactive: 0.499
13 | CC(C)NCC(O)c1ccccc1Cl (centres undefined) [Clorprenaline HCl] | inactive: 0.29
14 | Cc1cc2c(C(C)C)c(O)c(O)c(C=O)c2c(O)c1-c1c(C)cc2c(C(C)C)c(O)c(O)c(C=O)c2c1O [Gossypol] | inactive: -0.688
15 | O=c1[nH]c2ccccc2n1C1CCN(CCCC(c2ccc(F)cc2)c2ccc(F)cc2)CC1 [Pimozide] | active: -4.26
16 | O=c1[nH]c2ccc(Cl)cc2c(N[C@@H]2CN3CCC2CC3)c1-c1nc2ccccc2[nH]1 | active: -8.25
17 | CCN(CC)C(=O)c1ccc(C2=CC3(CCNCC3)Oc3cccc(O)c32)cc1 | inactive: 15.4
18 | NCCCNCCSP(=O)(O)O [Amifostine] | inactive: 0.735
19 | C[C@]12CCC(=O)C(O)=C1CC[C@@H]1[C@@H]2CC[C@]2(C)C(=O)CC[C@@H]12 [Formestane] | inactive: 0.511
20 | N#C[C@H](O[C@@H]1O[C@H](C(=O)O)[C@@H](O)[C@H](O)[C@H]1O)c1ccccc1 [Laetrile] | inactive: -1.59
21 | CN[C@@H]1[C@@H](O)[C@@H](O[C@@H]2[C@@H](O)[C@H](O[C@H]3O[C@H]([C@@H](C)O)[C@@H](O)[C@H](O)[C@H]3N)[C@@H](N)C[C@H]2N)OC[C@]1(C)O [Geneticin (G418 Sulfate)] | inactive: 0.324
22 | CCC1=C[C@H]2CN3CCc4c([nH]c5ccccc45)[C@](C(=O)OC)(C2)[C@H]13 [Catharanthine] | inactive: -0.796
23 | CNCC(O)c1ccc(O)cc1 (centres undefined) [Synephrine] | inactive: 0.0377
24 | CNCC(O)c1ccc(O)cc1 (centres undefined) [Synephrine HCl] | inactive: 0.942
25 | CCOc1ccccc1-n1c(C(C)N2CCN(C(=O)COc3ccc(Cl)cc3)CC2)nc2ccccc2c1=O (centres undefined) [Erastin] | inactive: -0.51
26 | CN1[C@@H]2CC[C@H]1C[C@@H](OC(=O)C(CO)c1ccccc1)C2 (some centres undefined) [Atropine] | inactive: -0.503
27 | CCc1c(C(=O)C(N)=O)c2c(OCC(=O)O)cccc2n1Cc1ccccc1 | inactive: 0.597

Row | SMILES | nuclei number (z-score)
28 | Cc1sc2c(c1C)C(c1ccc(Cl)cc1)=N[C@@H](CC(=O)Nc1ccc(O)cc1)c1nnc(C)n1-2 | active: -4.53
29 | COc1ccc(C(CN(C)C)C2(O)CCCCC2)cc1 (centres undefined) [Venlafaxine] | inactive: -0.0194
30 | CN(C)C(=O)Oc1cccc([N+](C)(C)C)c1 [Neostigmine Bromide] | inactive: 0.0157
31 | Nc1ncnc2c1ccn2[C@@H]1O[C@H](CO)[C@@H](O)[C@H]1O [Tubercidin] | active: -6.68
32 | C[C@H]1CNCCc2ccc(Cl)cc21 [Lorcaserin HCl] | inactive: 0.524
33 | C=C1C[C@@H]2[C@H](CC[C@]3(C)C(=O)CC[C@@H]23)[C@@]2(C)C=CC(=O)C=C12 [Exemestane] | inactive: 2.27
34 | COc1cc(C)[nH]c(=O)c1CNC(=O)c1c(C)n([C@H](C)C2CCOCC2)c2ccccc12 | inactive: 0.347
35 | CN1C(=O)CCS(=O)(=O)C1c1ccc(Cl)cc1 (centres undefined) [Chlormezanone] | inactive: 0.276
36 | O=P1(N(CCCl)CCCl)NCCCO1 (centres undefined) [Cyclophosphamide Monohydrate] | inactive: 2.36
37 | c1ccc2c(c1)sc1ccccc12 [Dibenzothiophene] | inactive: -0.000322
38 | CC(=O)NC1CCSC1=O (centres undefined) [Citiolone] | inactive: 0.19
39 | Cc1ccc(-n2nccn2)c(C(=O)N2CCN(c3nc4cc(Cl)ccc4o3)CC[C@H]2C)c1 [Suvorexant (MK-4305)] | inactive: 7.12
40 | CCCN1CCO[C@@H]2c3cc(O)ccc3OC[C@H]21 | inactive: -0.275
41 | CCCCCCCCCCCCCCCC[n+]1ccccc1 [Cetylpyridinium Chloride] | active: -5.11
42 | O.O.O.O=C([O-])C1[O][Sb]2[O]C(=O)C([O]2)C(C(=O)[O-])[O][Sb]2[O]C(=O)C1[O]2.[K+].[K+] (centres undefined) [Antimonyl potassium tartrate trihydrate] | active: -5.23
43 | Cn1c(COP(=O)(NCCBr)NCCBr)cnc1[N+](=O)[O-] | inactive: -0.968
44 | C=CN1CCCC1=O.II [Povidone iodine] | inactive: 4.28
45 | Cc1sc2c(c1C)C(c1ccc(Cl)cc1)=N[C@@H](CC(=O)OC(C)(C)C)c1nnc(C)n1-2 | active: -3.32
46 | O=C(CC1NCCCC1O)Cn1cnc2cc(Br)c(Cl)cc2c1=O (centres undefined) [Halofuginone] | active: -5.26
47 | CCc1cc2c(s1)-n1c(C)nnc1CN=C2c1ccccc1Cl [Etizolam] | inactive: 0.478
48 | COc1cc(OC)c(OC)cc1C=O [Asaraldehyde] | inactive: -0.401
49 | C[N+]1(C)CCCC(OC(=O)C(O)(c2ccccc2)c2ccccc2)C1 (centres undefined) [Mepenzolate Bromide] | inactive: 1.39
50 | OC(c1ccccc1)(c1ccccc1)C1CCNCC1 [Azacyclonol] | active: -5.25
51 | CCC1(C)CC(=O)NC(=O)C1 [Bemegride] | inactive: 0.624
52 | C/C(O)=C(\C#N)C(=O)Nc1cc(Br)ccc1Br | inactive: -0.318
53 | CCN(Cc1ccc(Cl)nc1)/C(=C/[N+](=O)[O-])NC [Nitenpyram] | inactive: 0.6
54 | Cc1ccccc1-n1c(Cn2ncc3c(N)ncnc32)nc2cccc(C)c2c1=O | inactive: -0.138
